This continues a long series; more values of the same kind are listed elsewhere. Toxic doses and inconclusive results are not listed. How the source made its calls: active means survival T/C of 150% or more; inactive means T/C below 125% in these data.
Tested on: CD2F1 mice, L1210 leukemia ip, survival T/C
Experiment: NCI In Vivo Anticancer Drug Screen. Data for tumor model L1210 Leukemia (intraperitoneal) in CD2F1 (CDF1) mice
Conditions: higher = longer survival
Method in brief: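 Ratio T/C, where T is the treated-group value and C the vehicle-dosed control value, from mice implanted with a transplantable tumor.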

Measured: T/C

NC(C/[N+]([O-])=N/O)C(=O)O (stereo not given)
inactive: endpoint: mean survival time, dose: 9.38 mg/kg/injection, schedule: Q01DX009 (ip), vehicle: alkali diluted with saline 111 % of control | endpoint: mean survival time, dose: 9.4 mg/kg/injection, schedule: Q01DX009 (ip), vehicle: alkali diluted with saline 106 % of control | endpoint: mean survival time, dose: 28.13 mg/kg/injection, schedule: Q04DX003 (ip), vehicle: alkali diluted with saline 106 % of control | endpoint: mean survival time, dose: 112.5 mg/kg/injection, schedule: Q04DX003 (ip), vehicle: alkali diluted with saline 105 % of control | endpoint: mean survival time, dose: 225.0 mg/kg/injection, schedule: Q04DX003 (ip), vehicle: alkali diluted with saline 107 % of control | endpoint: median survival time, dose: 3.13 mg/kg/injection, schedule: Q01DX009 (ip), vehicle: water 105 % of control | endpoint: median survival time, dose: 6.25 mg/kg/injection, schedule: Q01DX009 (ip), vehicle: water 105 % of control | endpoint: median survival time, dose: 12.5 mg/kg/injection, schedule: Q01DX009 (ip), vehicle: water 110 % of control | endpoint: median survival time, dose: 25.0 mg/kg/injection, schedule: Q01DX009 (ip), vehicle: water 110 % of control | endpoint: median survival time, dose: 31.3 mg/kg/injection, schedule: Q04DX003 (ip), vehicle: water 111 % of control

Source: PubChem BioAssay AID256 (DTP/NCI, 2004)
